Measured values as given in the supplement of paper PMC9542798.

How the values were obtained:
Assay in all cases: minimum inhibitory concentration
Vancomycin = compound: CN[C@H](CC(C)C)C(=O)N[C@H]1C(=O)N[C@@H](CC(N)=O)C(=O)N[C@H]2C(=O)N[C@H]3C(=O)N[C@H](C(=O)N[C@H](C(=O)O)c4cc(O)cc(O)c4-c4cc3ccc4O)[C@H](O)c3ccc(c(Cl)c3)Oc3cc2cc(c3O[C@@H]2O[C@H](CO)[C@@H](O)[C@H](O)[C@H]2O[C@H]2C[C@](C)(N)[C@H](O)[C@H](C)O2)Oc2ccc(cc2Cl)[C@H]1O [Vancomycin]
Description: (§1)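 Broth microdilution MIC per ISO 10932 on precoated VetMIC Lact-1 plates (tylosin, vancomycin and ampicillin plates prepared manually) against lactic acid bacteria and bifidobacteria isolates. Plates were read visually after 48 h anaerobic incubation (bifidobacteria 72 h; enterococci and staphylococci 24 h aerobic) at species-specific temperatures of 30 or 37 °C. Values prefixed with < or > are outside the tested dilution range.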

Chloramphenicol = compound: O=C(N[C@H](CO)[C@H](O)c1ccc([N+](=O)[O-])cc1)C(Cl)Cl [Chloramphenicol]
Description: as §1

Ampicillin = compound: CC1(C)S[C@@H]2[C@H](NC(=O)[C@H](N)c3ccccc3)C(=O)N2[C@H]1C(=O)O [Ampicillin]
Description: as §1

Kanamycin = compound: NC[C@H]1O[C@H](O[C@H]2[C@H](O)[C@@H](O[C@H]3O[C@H](CO)[C@@H](O)[C@H](N)[C@H]3O)[C@H](N)C[C@@H]2N)[C@H](O)[C@@H](O)[C@@H]1O [Kanamycin]
Description: as §1

Gentamicin = compound: CNC(C)C1CCC(N)C(OC2C(N)CC(N)C(OC3OCC(C)(O)C(NC)C3O)C2O)O1 [Gentamicin]
Description: as §1

Tetracycline = compound: CN(C)[C@@H]1C(O)=C(C(N)=O)C(=O)[C@@]2(O)C(O)=C3C(=O)c4c(O)cccc4[C@@](C)(O)[C@H]3C[C@@H]12 [Tetracycline]
Description: as §1

Neomycin = compound: NC[C@@H]1O[C@H](O[C@H]2[C@@H](O)[C@H](O[C@@H]3[C@@H](O)[C@H](N)C[C@H](N)[C@H]3O[C@H]3O[C@H](CN)[C@@H](O)[C@H](O)[C@H]3N)O[C@@H]2CO)[C@H](N)[C@@H](O)[C@@H]1O [Neomycin]
Description: as §1

Clindamycin = compound: CCC[C@@H]1C[C@@H](C(=O)N[C@@H]([C@H]2O[C@H](SC)[C@H](O)[C@@H](O)[C@H]2O)[C@H](C)Cl)N(C)C1 [Clindamycin]
Description: as §1

Erythromycin = compound: CC[C@H]1OC(=O)[C@H](C)[C@@H](O[C@H]2C[C@@](C)(OC)[C@@H](O)[C@H](C)O2)[C@H](C)[C@@H](O[C@@H]2O[C@H](C)C[C@H](N(C)C)[C@H]2O)[C@](C)(O)C[C@@H](C)C(=O)[C@H](C)[C@@H](O)[C@]1(C)O [Erythromycin]
Description: as §1

Streptomycin = compound: CN[C@@H]1[C@H](O[C@H]2[C@H](O[C@H]3[C@H](O)[C@@H](O)[C@H](N=C(N)N)[C@@H](O)[C@@H]3N=C(N)N)O[C@@H](C)[C@]2(O)C=O)O[C@@H](CO)[C@H](O)[C@H]1O [Streptomycin]
Description: as §1
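Further: isolates derived from commercial starter, protective, probiotic or feed-additive cultures, from fermented products, from human gut mucosa or feces, and from human milk or colostrum.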

Test System	minimum inhibitory concentration (Vancomycin)	minimum inhibitory concentration (Chloramphenicol)	minimum inhibitory concentration (Ampicillin)	minimum inhibitory concentration (Kanamycin)	minimum inhibitory concentration (Gentamicin)	minimum inhibitory concentration (Tetracycline)	minimum inhibitory concentration (Neomycin)	minimum inhibitory concentration (Clindamycin)	minimum inhibitory concentration (Erythromycin)	minimum inhibitory concentration (Streptomycin)
Lactobacillus gasseri IM886 (strain group: human milk or colostrum)	1 µg/mL	4 µg/mL	1 µg/mL	64 µg/mL	2 µg/mL	2 µg/mL	16 µg/mL	8 µg/mL	0.12 µg/mL	8 µg/mL
Lactobacillus gasseri IM887 (strain group: human milk or colostrum)	1 µg/mL	2 µg/mL	1 µg/mL	64 µg/mL	2 µg/mL	2 µg/mL	16 µg/mL	4 µg/mL	0.12 µg/mL	4 µg/mL
Lactobacillus gasseri IM888 (strain group: human milk or colostrum)	1 µg/mL	4 µg/mL	0.5 µg/mL	16 µg/mL	1 µg/mL	2 µg/mL	8 µg/mL	4 µg/mL	0.03 µg/mL	2 µg/mL
Lactobacillus gasseri IM889 (strain group: human milk or colostrum)	1 µg/mL	4 µg/mL	1 µg/mL	128 µg/mL	4 µg/mL	2 µg/mL	32 µg/mL	8 µg/mL	0.25 µg/mL	8 µg/mL
Lactobacillus gasseri IM890 (strain group: human milk or colostrum)	0.5 µg/mL	4 µg/mL	1 µg/mL	16 µg/mL	1 µg/mL	4 µg/mL	8 µg/mL	2 µg/mL	0.03 µg/mL	2 µg/mL
Lactobacillus gasseri IM918 (strain group: human milk or colostrum)	1 µg/mL	4 µg/mL	0.5 µg/mL	128 µg/mL	4 µg/mL	2 µg/mL	32 µg/mL	8 µg/mL	0.12 µg/mL	8 µg/mL
Lactobacillus gasseri IM926 (strain group: human milk or colostrum)	1 µg/mL	4 µg/mL	0.5 µg/mL	64 µg/mL	2 µg/mL	2 µg/mL	128 µg/mL	8 µg/mL	0.25 µg/mL	4 µg/mL
Lactobacillus gasseri IM951 (strain group: human intestinal mucosa or faeces)	1 µg/mL	4 µg/mL	1 µg/mL	128 µg/mL	4 µg/mL	4 µg/mL	64 µg/mL	0.5 µg/mL	0.25 µg/mL	64 µg/mL
Lactobacillus gasseri IM1431 (strain group: starter cultures)	2 µg/mL	4 µg/mL	1 µg/mL	32 µg/mL	2 µg/mL	4 µg/mL	8 µg/mL	2 µg/mL	0.06 µg/mL	4 µg/mL
Lactobacillus gasseri/johnsonii IM859 (strain group: human milk or colostrum)	2 µg/mL	4 µg/mL	1 µg/mL	128 µg/mL	2 µg/mL	4 µg/mL	16 µg/mL	8 µg/mL	0.12 µg/mL	16 µg/mL
Lactobacillus gasseri/johnsonii IM875 (strain group: human milk or colostrum)	1 µg/mL	8 µg/mL	1 µg/mL	128 µg/mL	2 µg/mL	2 µg/mL	16 µg/mL	4 µg/mL	0.12 µg/mL	16 µg/mL
Lactobacillus helveticus IM1446 (strain group: starter cultures)	< 0.25 µg/mL	2 µg/mL	0.5 µg/mL	8 µg/mL	< 0.5 µg/mL	2 µg/mL	< 0.5 µg/mL	1 µg/mL	0.03 µg/mL	1 µg/mL
Lactococcus lactis IM44 (strain group: starter cultures)	0.5 µg/mL	2 µg/mL	0.25 µg/mL	4 µg/mL	2 µg/mL	0.25 µg/mL	4 µg/mL	0.12 µg/mL	1 µg/mL	16 µg/mL
Lactococcus lactis IM832 (strain group: starter cultures)	0.5 µg/mL	4 µg/mL	1 µg/mL	4 µg/mL	4 µg/mL	0.5 µg/mL	4 µg/mL	0.12 µg/mL	0.5 µg/mL	32 µg/mL
Lactococcus lactis IM1320 (strain group: non-starter strains)	0.5 µg/mL	4 µg/mL	0.5 µg/mL	4 µg/mL	2 µg/mL	0.5 µg/mL	8 µg/mL	0.5 µg/mL	1 µg/mL	16 µg/mL
Lactococcus lactis IM1321 (strain group: non-starter strains)	0.5 µg/mL	4 µg/mL	2 µg/mL	16 µg/mL	4 µg/mL	0.5 µg/mL	8 µg/mL	0.25 µg/mL	1 µg/mL	64 µg/mL
Lactococcus lactis IM1323 (strain group: non-starter strains)	0.5 µg/mL	8 µg/mL	1 µg/mL	16 µg/mL	4 µg/mL	32 µg/mL	8 µg/mL	0.5 µg/mL	1 µg/mL	> 256 µg/mL
